Reference: patent US9255256

Target: T1, human P450 reductase fused at its N-terminus to the bacterial pelB leader sequence, P16435
T1 chain: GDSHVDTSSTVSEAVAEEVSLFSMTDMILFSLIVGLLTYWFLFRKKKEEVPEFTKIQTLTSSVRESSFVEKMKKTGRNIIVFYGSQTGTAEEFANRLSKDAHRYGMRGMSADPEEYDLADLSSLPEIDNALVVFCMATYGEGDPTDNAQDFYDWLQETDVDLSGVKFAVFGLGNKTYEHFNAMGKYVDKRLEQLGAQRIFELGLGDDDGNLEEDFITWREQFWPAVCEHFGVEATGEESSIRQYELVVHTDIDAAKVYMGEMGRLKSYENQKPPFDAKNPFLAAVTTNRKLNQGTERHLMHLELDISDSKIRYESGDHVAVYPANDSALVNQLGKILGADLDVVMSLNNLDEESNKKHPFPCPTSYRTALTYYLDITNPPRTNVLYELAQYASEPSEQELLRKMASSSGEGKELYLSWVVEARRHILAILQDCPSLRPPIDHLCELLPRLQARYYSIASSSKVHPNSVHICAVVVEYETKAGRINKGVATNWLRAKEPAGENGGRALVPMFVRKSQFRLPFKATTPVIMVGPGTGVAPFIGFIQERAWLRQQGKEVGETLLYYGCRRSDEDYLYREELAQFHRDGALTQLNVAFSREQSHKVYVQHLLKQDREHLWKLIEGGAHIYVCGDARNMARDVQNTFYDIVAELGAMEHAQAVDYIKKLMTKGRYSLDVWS

Protein	erythromycin N-demethylase turnover, JM109 pB216 membranes [min^-1]	nifedipine oxidase turnover, JM109 pB216 membranes [min^-1]	nifedipine oxidase turnover, membranes, two plasmid system (nmol formed per minute per nmol CYP3A4)	testosterone 6β-hydroxylase turnover, JM109 pB216 membranes [min^-1]	testosterone 6β-hydroxylase turnover, membranes, two plasmid system (nmol formed per minute per nmol CYP3A4)
17α-CYP3A4 (optimised CYP3A4 expressed from NF14 / pB216) (protein) MALIPDLAMETWLLLAVSLVLLYLYGTHSHGLFKKLGIPGPTPLPFLGNILSYHKGFCMFDMECHKKYGKVWGFYDGQQPVLAITDPDMIKTVLVKECYSVFTNRRPFGPVGFMKSAISIAEDEEWKRLRSLLSPTFTSGKLKEMVPIIAQYGDVLVRNLRREAETGKPVTLKDVFGAYSMDVITSTSFGVNIDSLNNPQDPFVENTKKLLRFDFLDPFFLSITVFPFLIPILEVLNICVFPREVTNFLRKSVKRMKESRLEDTQKHRVDFLQLMIDSQNSKETESHKALSDLELVAQSIIFIFAGYETTSSVLSFIMYELATHPDVQQKLQEEIDAVLPNKAPPTYDTVLQMEYLDMVVNETLRLFPIAMRLERVCKKDVEINGMFIPKGVVVMIPSYALHRDPKYWTEPEKFLPERFSKKNKDNIDPYIYTPFGSGPRNCIGMRFALMNMKLALIRVLQNFSFKPCKETQIPLKLSLGGLLQPEKPVVLKVESRDGTVSGA	2.3	12.7	9.1	25.5	4.9
ompA-CYP3A4 (protein) ALIPDLAMETWLLLAVSLVLLYLYGTHSHGLFKKLGIPGPTPLPFLGNILSYHKGFCMFDMECHKKYGKVWGFYDGQQPVLAITDPDMIKTVLVKECYSVFTNRRPFGPVGFMKSAISIAEDEEWKRLRSLLSPTFTSGKLKEMVPIIAQYGDVLVRNLRREAETGKPVTLKDVFGAYSMDVITSTSFGVNIDSLNNPQDPFVENTKKLLRFDFLDPFFLSITVFPFLIPILEVLNICVFPREVTNFLRKSVKRMKESRLEDTQKHRVDFLQLMIDSQNSKETESHKALSDLELVAQSIIFIFAGYETTSSVLSFIMYELATHPDVQQKLQEEIDAVLPNKAPPTYDTVLQMEYLDMVVNETLRLFPIAMRLERVCKKDVEINGMFIPKGVVVMIPSYALHRDPKYWTEPEKFLPERFSKKNKDNIDPYIYTPFGSGPRNCIGMRFALMNMKLALIRVLQNFSFKPCKETQIPLKLSLGGLLQPEKPVVLKVESRDGTVSGA			8.8		2.5
ompA(+2)-CYP3A4 (protein) APALIPDLAMETWLLLAVSLVLLYLYGTHSHGLFKKLGIPGPTPLPFLGNILSYHKGFCMFDMECHKKYGKVWGFYDGQQPVLAITDPDMIKTVLVKECYSVFTNRRPFGPVGFMKSAISIAEDEEWKRLRSLLSPTFTSGKLKEMVPIIAQYGDVLVRNLRREAETGKPVTLKDVFGAYSMDVITSTSFGVNIDSLNNPQDPFVENTKKLLRFDFLDPFFLSITVFPFLIPILEVLNICVFPREVTNFLRKSVKRMKESRLEDTQKHRVDFLQLMIDSQNSKETESHKALSDLELVAQSIIFIFAGYETTSSVLSFIMYELATHPDVQQKLQEEIDAVLPNKAPPTYDTVLQMEYLDMVVNETLRLFPIAMRLERVCKKDVEINGMFIPKGVVVMIPSYALHRDPKYWTEPEKFLPERFSKKNKDNIDPYIYTPFGSGPRNCIGMRFALMNMKLALIRVLQNFSFKPCKETQIPLKLSLGGLLQPEKPVVLKVESRDGTVSGA			11.1		9.9
